Measured values published in publication PMC4336329 (PLoS ONE, 2015).
Screen size: about 310,000 compounds; about 14,000 (4.5%) showed an effect of 50% or more. Effects have a minus sign here. The list shows a part of the results.
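Note: peak tail current of the secondary pulse compared with the same well before compound.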

Each molecule was assayed against human ether-à-go-go-related gene (hERG) potassium channel (human, UniProt Q12809) (assay: primary screen, population patch clamp on CHO cells stably expressing hERG).
human ether-à-go-go-related gene (hERG) potassium channel, sequence (Q12809 whole entry, looked up): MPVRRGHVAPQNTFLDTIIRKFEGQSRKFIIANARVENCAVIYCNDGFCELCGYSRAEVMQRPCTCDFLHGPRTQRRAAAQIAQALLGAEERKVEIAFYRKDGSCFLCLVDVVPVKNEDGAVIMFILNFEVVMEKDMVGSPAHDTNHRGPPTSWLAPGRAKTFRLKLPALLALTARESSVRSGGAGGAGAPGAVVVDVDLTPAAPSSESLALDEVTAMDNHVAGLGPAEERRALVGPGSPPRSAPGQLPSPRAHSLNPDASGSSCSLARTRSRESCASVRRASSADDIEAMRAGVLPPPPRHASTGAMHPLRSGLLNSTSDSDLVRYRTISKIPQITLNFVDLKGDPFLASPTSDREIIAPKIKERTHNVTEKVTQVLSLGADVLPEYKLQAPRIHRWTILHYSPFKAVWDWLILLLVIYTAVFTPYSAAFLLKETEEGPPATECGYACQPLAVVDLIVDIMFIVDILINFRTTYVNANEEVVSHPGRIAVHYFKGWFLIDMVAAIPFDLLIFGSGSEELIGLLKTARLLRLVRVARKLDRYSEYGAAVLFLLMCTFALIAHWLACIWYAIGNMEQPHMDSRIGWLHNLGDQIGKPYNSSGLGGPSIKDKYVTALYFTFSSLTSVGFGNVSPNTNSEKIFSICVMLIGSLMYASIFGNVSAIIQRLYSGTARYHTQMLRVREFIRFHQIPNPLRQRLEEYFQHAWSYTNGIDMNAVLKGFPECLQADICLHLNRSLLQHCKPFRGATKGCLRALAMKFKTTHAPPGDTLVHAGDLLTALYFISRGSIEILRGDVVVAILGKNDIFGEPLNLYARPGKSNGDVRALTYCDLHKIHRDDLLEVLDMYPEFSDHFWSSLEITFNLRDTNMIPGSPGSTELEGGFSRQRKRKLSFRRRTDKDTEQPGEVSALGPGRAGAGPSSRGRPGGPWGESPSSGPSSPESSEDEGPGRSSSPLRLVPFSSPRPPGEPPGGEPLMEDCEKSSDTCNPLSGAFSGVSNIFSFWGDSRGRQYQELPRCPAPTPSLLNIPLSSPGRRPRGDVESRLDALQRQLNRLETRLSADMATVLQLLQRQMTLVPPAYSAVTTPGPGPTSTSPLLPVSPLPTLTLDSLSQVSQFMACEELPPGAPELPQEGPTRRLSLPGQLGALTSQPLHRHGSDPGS
`COc1ccc(NC(=O)CSc2nnc(CNc3ccc(C)cc3)n2C)cc1` was tested, and the “hERG current change (%, negative = inhibition) at 10uM” value was 25.2%.
In the case of `COc1ccc(Cl)cc1NC(=S)NCCCN1CCCC1=O`, the “hERG current change (%, negative = inhibition) at 10uM” value was 2.39%.
For `COc1cc2c(cc1OC)C(NC(=O)c1ccc(C)cc1)CC2=O` (centres unmarked), the “hERG current change (%, negative = inhibition) at 10uM” value was -2.85%.
For `O=C(Nc1ccc2c(c1)OCCO2)c1ccc(Cl)cc1`, the “hERG current change (%, negative = inhibition) at 10uM” value was 6.17%.
In the case of `CNC(=S)N(Cc1ccco1)Cc1cc2cc(OC)ccc2[nH]c1=O`, the “hERG current change (%, negative = inhibition) at 10uM” value was 8.27%.
For `Cc1c(C(=O)NCC2CCCO2)oc2ccccc12` (centres unmarked), the “hERG current change (%, negative = inhibition) at 10uM” value was -1.51%.
`CCc1cccc(C)c1NC(=O)COC(=O)Cc1ccsc1` was tested, and the “hERG current change (%, negative = inhibition) at 10uM” value was 10.4%.
For `COc1ccc(C(C(=O)Nc2ccc(C(C)C)cc2)N(C)C(=O)CNC(C)=O)cc1` (centres unmarked), the “hERG current change (%, negative = inhibition) at 10uM” value was -36.7%.
`Fc1ccc(C(CNC(=S)NC2CCCCC2)N2CCOCC2)cc1` (centres unmarked) was tested, and the “hERG current change (%, negative = inhibition) at 10uM” value was 20.9%.
`Cc1ccc(C)c(OCc2ccc(C(=O)N3N=C(C(F)F)CC3(O)C(F)F)o2)c1` (centres unmarked) was tested, and the “hERG current change (%, negative = inhibition) at 10uM” value was 7.75%.
With `O=C1C2C3C=CC(C3)C2C(=O)N1CCCCN1C(=O)C2C3C=CC(C3)C2C1=O` (centres unmarked) the “hERG current change (%, negative = inhibition) at 10uM” value was 15.1%.
With `C=CCN(C(=O)Cn1ncc2c1-c1cc(C)ccc1OC2)c1ccccc1` the “hERG current change (%, negative = inhibition) at 10uM” value was -24.9%.
For `Cc1cc(=O)c(C(=O)O)nn1-c1ccccc1Cl`, the “hERG current change (%, negative = inhibition) at 10uM” value was 21.4%.
In the case of `CC(=O)NC1C(Oc2cccc(C)c2)OC2COC(c3ccco3)OC2C1O` (centres unmarked), the “hERG current change (%, negative = inhibition) at 10uM” value was -2.31%.
In the case of `COC(=O)CSc1nnc(NC(=O)CCc2ccccc2)s1`, the “hERG current change (%, negative = inhibition) at 10uM” value was 19.4%.
With `CCOC(=O)C1=C(N)OC(C)=C(C(=O)OCCOC)C12C(=O)Nc1ccccc12` (centres unmarked) the “hERG current change (%, negative = inhibition) at 10uM” value was 9.07%.
With `CC(=O)Nc1ccc(NC(=O)C(=O)N/N=C/c2cccnc2)cc1` the “hERG current change (%, negative = inhibition) at 10uM” value was 15%.
In the case of `CCCn1nc(C(=O)NNC(=O)CSCC(=O)Nc2cc(C)on2)c2ccccc2c1=O`, the “hERG current change (%, negative = inhibition) at 10uM” value was 4.74%.
In the case of `Cn1c(=O)oc2cc(S(=O)(=O)NCc3ccccn3)ccc21`, the “hERG current change (%, negative = inhibition) at 10uM” value was 8.11%.
With `COc1ccc(/C=N\NC(=O)c2ccccc2F)cc1COc1ccc(F)cc1F` the “hERG current change (%, negative = inhibition) at 10uM” value was 11.7%.
For `CCN1CCN(C(=O)c2ccc(COc3cccc(Cl)c3)o2)CC1`, the “hERG current change (%, negative = inhibition) at 10uM” value was -23.7%.
`O=C(NCc1ccc(Cl)cc1)C(=O)NCC1OCCN1C(=O)c1cccs1` (centres unmarked) was tested, and the “hERG current change (%, negative = inhibition) at 10uM” value was -7.77%.
`Cc1ccc(-n2ccc(-c3nn(-c4ccccc4)ccc3=O)n2)cc1` was tested, and the “hERG current change (%, negative = inhibition) at 10uM” value was -11.4%.
In the case of `O=C(Cn1cccc1C(=O)c1ccccc1)NCCCN1CCOCC1`, the “hERG current change (%, negative = inhibition) at 10uM” value was 13.4%.
With `COc1ccc2ncc(S(=O)(=O)c3ccccc3)c(N3CCN(c4ccccc4)CC3)c2c1` the “hERG current change (%, negative = inhibition) at 10uM” value was -8.4%.
`Cc1ccc(S(=O)(=O)N(CC(O)CN2CCOCC2)c2cc(Cl)ccc2Cl)cc1.Cl` (centres unmarked) was tested, and the “hERG current change (%, negative = inhibition) at 10uM” value was -31.9%.
`COP(=O)(NC(=O)C(Cl)(Cl)Cl)OC` was tested, and the “hERG current change (%, negative = inhibition) at 10uM” value was 7.96%.
In the case of `Cc1ccc(C)n1-n1cnc2sc3c(c2c1=O)CCCCC3`, the “hERG current change (%, negative = inhibition) at 10uM” value was -19.6%.
`COc1ccc(C(=O)Nc2ccccc2C(=O)N/N=C/c2ccccn2)cc1OC` was tested, and the “hERG current change (%, negative = inhibition) at 10uM” value was 9.73%.
For `COc1cc(Cl)cc(/C=N/NC(N)=O)c1O`, the “hERG current change (%, negative = inhibition) at 10uM” value was 11.3%.
`CC(C)CNC(=S)Nc1ccc(Oc2ccccc2)cc1` was tested, and the “hERG current change (%, negative = inhibition) at 10uM” value was -5.91%.
In the case of `CN1C(=O)c2c(sc3c2CC(C)(C)SC3)N2CCN=C12.Cl`, the “hERG current change (%, negative = inhibition) at 10uM” value was -72.6%.
`O=C(NC1CCCC1)C(c1ccc(F)cc1)N(Cc1ccccc1)C(=O)c1csnn1` (centres unmarked) was tested, and the “hERG current change (%, negative = inhibition) at 10uM” value was -11.9%.
With `CC(=O)OCC[n+]1c(C)n(-c2ccccc2)c2ccc(Cl)cc21.[I-]` the “hERG current change (%, negative = inhibition) at 10uM” value was -4.75%.
In the case of `CC(=O)c1cccc(S(=O)(=O)N2CCC(C(=O)OC3CCOC3=O)CC2)c1` (centres unmarked), the “hERG current change (%, negative = inhibition) at 10uM” value was -7.44%.
In the case of `CC1c2[nH]c3ccccc3c2CCN1S(C)(=O)=O` (centres unmarked), the “hERG current change (%, negative = inhibition) at 10uM” value was 3.54%.
`COc1ccccc1CNC(=O)c1cc2sccc2n1C` was tested, and the “hERG current change (%, negative = inhibition) at 10uM” value was 0.117%.
With `COc1ccccc1-n1cc(C(=O)NCC(=O)N2CCN(Cc3ccccc3)CC2)c2ccccc2c1=O` the “hERG current change (%, negative = inhibition) at 10uM” value was -23.3%.
For `O=C(Cn1cnc2c(nnn2Cc2ccccc2)c1=O)NCc1ccccc1Cl`, the “hERG current change (%, negative = inhibition) at 10uM” value was 5.76%.
In the case of `O=C(O)c1ccc(NC(=O)c2ccccc2NC(=O)c2ccccc2Br)cc1`, the “hERG current change (%, negative = inhibition) at 10uM” value was 12.1%.
For `C=CCOn1c(=O)c(-c2cc3ccccc3o2)[n+]([O-])c2ccccc21`, the “hERG current change (%, negative = inhibition) at 10uM” value was 16.8%.
`COc1cccc(-c2onc3ccc(C(C)=O)cc23)c1` was tested, and the “hERG current change (%, negative = inhibition) at 10uM” value was 9.66%.
In the case of `Cc1ccc(OCC(=O)Nc2ccccc2Sc2ccccc2)c([N+](=O)[O-])n1`, the “hERG current change (%, negative = inhibition) at 10uM” value was 3.03%.
With `CCCn1c(NC(=O)c2ccc([N+](=O)[O-])o2)nc2ccccc21` the “hERG current change (%, negative = inhibition) at 10uM” value was -10.8%.
